The RNAGym collection of RNA variant scans (doi:10.1073/pnas.2313332121)
Variants at the background level are over-represented here.

B1: TPR 5TU (parent)
chain: GGAUCUUCUCGAUCUAACAAAAAAGACAAAUCUGCCACAAAGCUUGAGAGCAUCUUCGGAUGCAGAGGCGGCAGCCUUCGGUGGCGCGAUAGCGCCAACGUUCUCAACUAUGACACGCAAAACGCGUGCUCCGUUGAAUGGAGUUUAUCAUG

Variants of: B1
Test: polymerase ribozyme fitness, log enrichment relative to wild type (log ratio); higher = more active; in vitro selection for triplet polymerase activity
Procedure, shortened: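 Mutant libraries for each subunit of a heterodimeric triplet polymerase ribozyme were made by PCR and then transcribed. Each library underwent one round of in vitro selection in triplicate: annealing with a biotinylated primer, the partner subunit and triplets, frozen incubation at −7 °C, gel excision of extended constructs, streptavidin-bead capture and RT-PCR. Input and output libraries were Illumina-sequenced, and only genotypes with ≥10 input reads and ≥1 read per output were kept. Fitness is the logarithm, base 2, of genotype enrichment over wild-type enrichment, computed from inverse-variance-weighted replicate averages.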

A41U G81A C95G C114G and A41G U44G A60G G67C C93U C105G A106U cannot be ordered by “polymerase ribozyme fitness (log ratio)” value: no more than -4.2 for the first, no more than -4.2 for the second.

A41U C51A C114A G136A U144G and A41G U77G C85G C96U G124C cannot be ordered by “polymerase ribozyme fitness (log ratio)” value: no more than -4.2 for the first, no more than -4.2 for the second.

A40U C96G A137U C149U and A41C C43U G59U C69A C76U cannot be ordered by “polymerase ribozyme fitness (log ratio)” value: no more than -4.2 for the first, no more than -4.2 for the second.

A40G U56G C57A C69U C93A A98G and G42A A49C G59A C93U C103G C116G A138C cannot be ordered by “polymerase ribozyme fitness (log ratio)” value: no more than -4.2 for the first, no more than -4.2 for the second.

A41C A91U A106G G124A and A41C G88U cannot be ordered by “polymerase ribozyme fitness (log ratio)” value: no more than -4.2 for the first, no more than -4.2 for the second.

First: A41U G117C
Second: A41C U53C C57U C87G A98U
The “polymerase ribozyme fitness (log ratio)” value of the first is higher: -0.836 for the first, no more than -4.2 for the second.

A40G U44G G68C U78G G83A A115G C116A and G42A A49U C57A C96U A142G cannot be ordered by “polymerase ribozyme fitness (log ratio)” value: no more than -4.2 for the first, no more than -4.2 for the second.

A40U C87U A91U C108G A115G and A41C C43A C72G U78A C99U cannot be ordered by “polymerase ribozyme fitness (log ratio)” value: no more than -4.2 for the first, no more than -4.2 for the second.

A41U U90G and A41G A89G G92U G100A G117C G133A G143U cannot be ordered by “polymerase ribozyme fitness (log ratio)” value: no more than -4.2 for the first, no more than -4.2 for the second.

A41C A49C C75A C95A and A41C C63U G67A C69U G94C G117A G124A U139G cannot be ordered by “polymerase ribozyme fitness (log ratio)” value: no more than -4.2 for the first, no more than -4.2 for the second.

A41U A47U C95U U102C C114U U148A A150C and A40G G70A U109C cannot be ordered by “polymerase ribozyme fitness (log ratio)” value: no more than -4.2 for the first, no more than -4.2 for the second.

Going from A40U U55A G58C C85G A119U to A41G U44G C75A G92A U102A U148C, the “polymerase ribozyme fitness (log ratio)” value falls from -2.59 to no more than -4.2.

A41G U78G G88U A119G and A41C A73U G94C cannot be ordered by “polymerase ribozyme fitness (log ratio)” value: no more than -4.2 for the first, no more than -4.2 for the second.

First: A41C U78G C85U C87U U127A U139C U151C
Second: A40U U109A
The “polymerase ribozyme fitness (log ratio)” value of the first is lower: no more than -4.2 for the first, -1.86 for the second.

A41U G50A C51A G84C A91G G128A and A41U G71A G83C G84U U145C A147U cannot be ordered by “polymerase ribozyme fitness (log ratio)” value: no more than -4.2 for the first, no more than -4.2 for the second.

A40G G71A A137G and A40U G68C C79U G84A C96A A138C cannot be ordered by “polymerase ribozyme fitness (log ratio)” value: no more than -4.2 for the first, no more than -4.2 for the second.

G42A A52G C85A C96A G128U A150C and A41U G50C U55G C76U A106G A142G cannot be ordered by “polymerase ribozyme fitness (log ratio)” value: no more than -4.2 for the first, no more than -4.2 for the second.

A41U C85G G126A U148C and A41U C87U C93U C99G cannot be ordered by “polymerase ribozyme fitness (log ratio)” value: no more than -4.2 for the first, no more than -4.2 for the second.

Going from A41G A66C G71C C93G U144C U151G to A41C C96A U146A, the “polymerase ribozyme fitness (log ratio)” value rises from no more than -4.2 to -0.97.

A41G U44G U45A A49C C51U C79U A91U G94C U144G and A40U C54A C103G C125A cannot be ordered by “polymerase ribozyme fitness (log ratio)” value: no more than -4.2 for the first, no more than -4.2 for the second.

A40G G65U G83C U102A and A40U G70C U90C C103U cannot be ordered by “polymerase ribozyme fitness (log ratio)” value: no more than -4.2 for the first, no more than -4.2 for the second.

A41C A107G U148C and A41G C69A U77G A115U cannot be ordered by “polymerase ribozyme fitness (log ratio)” value: no more than -4.2 for the first, no more than -4.2 for the second.

A40U G92A A120U C132A G141C and A41C U53G U109C A147U cannot be ordered by “polymerase ribozyme fitness (log ratio)” value: no more than -4.2 for the first, no more than -4.2 for the second.

A41G C85A U130G G143U A147G and A41U C51A G86C G88C cannot be ordered by “polymerase ribozyme fitness (log ratio)” value: no more than -4.2 for the first, no more than -4.2 for the second.

Going from A41C G74A A91G C93U G141U to A41G G81C U82C, the “polymerase ribozyme fitness (log ratio)” value rises from no more than -4.2 to -0.145.

A41C A47C A52U G74A U102G A119U G136C U139G U146G and A41C U55G G86U U101G C132U G143C cannot be ordered by “polymerase ribozyme fitness (log ratio)” value: no more than -4.2 for the first, no more than -4.2 for the second.

A41G C69A G74C C93U A113C and A41C C87G G126A cannot be ordered by “polymerase ribozyme fitness (log ratio)” value: no more than -4.2 for the first, no more than -4.2 for the second.

A40G U53A C96A A137C G141A and A41C G50U C85A C95U G136U U148C cannot be ordered by “polymerase ribozyme fitness (log ratio)” value: no more than -4.2 for the first, no more than -4.2 for the second.

A40U U78G C96U A113U A119U U135A G143U and A41G G59U U82G C85U A91U U111G cannot be ordered by “polymerase ribozyme fitness (log ratio)” value: no more than -4.2 for the first, no more than -4.2 for the second.

A41C C87A A107U and A41C G46U U55G A64G G67C G70U U109C C149G cannot be ordered by “polymerase ribozyme fitness (log ratio)” value: no more than -4.2 for the first, no more than -4.2 for the second.

Compared with A40G G92U C108U G124A G128U, A41U C95U A98C is higher in “polymerase ribozyme fitness (log ratio)” value: no more than -4.2 for the first, -1.48 for the second.

A41C G88U A91U and A40U A41G A52C U55A U78A C93U U139C U146C cannot be ordered by “polymerase ribozyme fitness (log ratio)” value: no more than -4.2 for the first, no more than -4.2 for the second.

A40G U44C C99U and A41C C85U C96A U101C G126A G152U cannot be ordered by “polymerase ribozyme fitness (log ratio)” value: no more than -4.2 for the first, no more than -4.2 for the second.

A40U G84C A89U A115U C125U and A41G G42U C54G G88U G143A cannot be ordered by “polymerase ribozyme fitness (log ratio)” value: no more than -4.2 for the first, no more than -4.2 for the second.

A41G A52G G65U U101G and A41C C51U G65C G136C cannot be ordered by “polymerase ribozyme fitness (log ratio)” value: no more than -4.2 for the first, no more than -4.2 for the second.

A41C G62C G83C G94U C116U A120U U146A and A41G G42C U82G C87G C118A cannot be ordered by “polymerase ribozyme fitness (log ratio)” value: no more than -4.2 for the first, no more than -4.2 for the second.

A41U G46A C75U G88A C99G C108U and G42A A52G G70C G141C cannot be ordered by “polymerase ribozyme fitness (log ratio)” value: no more than -4.2 for the first, no more than -4.2 for the second.

A41C G100A and A41U U44A A47C C95U C116A cannot be ordered by “polymerase ribozyme fitness (log ratio)” value: no more than -4.2 for the first, no more than -4.2 for the second.

Going from A41G C75U C93G to A41U G136A, the “polymerase ribozyme fitness (log ratio)” value rises from -2.6 to 0.0389.

A41G G62C U90G C105U C116A U135A and G42A A97G U101G C103G A110G G140U cannot be ordered by “polymerase ribozyme fitness (log ratio)” value: no more than -4.2 for the first, no more than -4.2 for the second.

Going from A40G U44A G46A G59C U90G C99A to A40U A47C C51U U82C C118G, the “polymerase ribozyme fitness (log ratio)” value rises from no more than -4.2 to -2.44.

A41G U45C G50U C76U G100C A150G and A41U U45G C69U C108G C118G cannot be ordered by “polymerase ribozyme fitness (log ratio)” value: no more than -4.2 for the first, no more than -4.2 for the second.
